Data as given in patent US7425576B2, “Compounds as inhibitors of hepatitis C virus NS3 serine protease” (Schering Corporation, priority 2004, dated 2008).
pKi: −log10 of the molar value.

These compounds were tested against Recombinant heterodimeric HCV NS3/NS4A protease (strain 1a) (Hepatitis C virus genotype 1a, UniProt P27958) (assay: Spectrophotometric assay for HCV protease inhibitory activity (chromogenic ester substrates)). Conditions: Table 3, Ki* range class.
Format: biochemical

`CC(C)(C)[C@H](NC(=O)CC1(COCc2ccccc2)CCCCCC1)C(=O)N1C[C@H]2[C@@H]([C@H]1C(=O)NC(CC1CC1)C(=O)C(N)=O)C2(C)C` (stereo partly shown) [Example 1621] and `CC(C)(C)[C@H](NC(=O)NC1(C(O)Cc2ccccc2)CCCCC1)C(=O)N1C[C@H]2[C@@H]([C@H]1C(=O)NC(CC1CC1)C(=O)C(N)=O)C2(C)C` (stereo partly shown) [Example 1644] cannot be ordered by pKi: greater than 7.12 for the first, greater than 7.12 for the second.

First: CC1(C)[C@@H]2[C@@H](C(=O)NC(CC3CC3)C(=O)C(N)=O)N(C(=O)[C@@H](NC(=O)NC3(COCc4ccccc4)CCCCCC3)C3Cc4ccccc4C3)C[C@@H]21 (stereo partly shown) [Example 1622]
Second: CC1(C)[C@@H]2[C@@H](C(=O)NC(CC3CC3)C(=O)C(N)=O)N(C(=O)[C@@H](NC(=O)NC3(CO)CCCCCC3)C3Cc4ccccc4C3)C[C@@H]21 (stereo partly shown) [Example 1625]
The pKi of the first is lower: less than 6.60 for the first, 6.60 to 7.12 for the second.

First: CC1(C)[C@@H]2[C@@H](C(=O)NC(CC3CC3)C(=O)C(N)=O)N(C(=O)[C@@H](NC(=O)NC3(COCc4ccccc4)CCCCCC3)C3CCCCC3)C[C@@H]21 (stereo partly shown) [Example 1623]
Second: CC1(C)[C@@H]2[C@@H](C(=O)NC(CC3CC3)C(=O)C(N)=O)N(C(=O)[C@@H](NC(=O)NC3(CO)CCCCCC3)C3CCCCC3)C[C@@H]21 (stereo partly shown) [Example 1624]
The pKi of the first is lower: 6.60 to 7.12 for the first, greater than 7.12 for the second.

`CC(C)(C)[C@H](NC(=O)NC1(CO)CCCCCC1)C(=O)N1C[C@H]2[C@@H]([C@H]1C(=O)NC(CC1CC1)C(=O)C(N)=O)C2(C)C` (stereo partly shown) [Example 1626] and `CC(C)(C)[C@H](NC(=O)NC1(C(O)c2ccccc2)CCCCC1)C(=O)N1C[C@H]2[C@@H]([C@H]1C(=O)NC(CC1CC1)C(=O)C(N)=O)C2(C)C` (stereo partly shown) [Example 1642] cannot be ordered by pKi: greater than 7.12 for the first, greater than 7.12 for the second.

`CC(C)[C@@H](COC(C)(C)C)NC(=O)N[C@H](C(=O)N1C[C@H]2[C@@H]([C@H]1C(=O)NC(CC1CC1)C(=O)C(N)=O)C2(C)C)C(C)(C)C` (stereo partly shown) [Example 1627] and `CC(C)(CO)NC(=O)N[C@H](C(=O)N1C[C@H]2[C@@H]([C@H]1C(=O)NC(CC1CC1)C(=O)C(N)=O)C2(C)C)C(C)(C)C` (stereo partly shown) [Example 1628] cannot be ordered by pKi: greater than 7.12 for the first, greater than 7.12 for the second.

`COC[C@@H](NC(=O)N[C@H](C(=O)N1C[C@H]2[C@@H]([C@H]1C(=O)NC(CC1CC1)C(=O)C(N)=O)C2(C)C)C1Cc2ccccc2C1)C(C)(C)C` (stereo partly shown) [Example 1630] and `COC[C@@H](NC(=O)N[C@H](C(=O)N1C[C@H]2[C@@H]([C@H]1C(=O)NC(CC1CCC1)C(=O)C(N)=O)C2(C)C)C1Cc2ccccc2C1)C(C)(C)C` (stereo partly shown) [Example 1631] cannot be ordered by pKi: greater than 7.12 for the first, greater than 7.12 for the second.

First: CC(C)(CO)NC(=O)N[C@H](C(=O)N1C[C@H]2[C@@H]([C@H]1C(=O)NC(CC1CCC1)C(=O)C(N)=O)C2(C)C)C(C)(C)C (stereo partly shown) [Example 1632]
Second: CC(C)(COCc1ccccc1)NC(=O)N[C@H](C(=O)N1C[C@H]2[C@@H]([C@H]1C(=O)NC(CC1CCC1)C(=O)C(N)=O)C2(C)C)C(C)(C)C (stereo partly shown) [Example 1633]
The pKi of the first is higher: greater than 7.12 for the first, 6.60 to 7.12 for the second. The first binds more tightly here.

Compared with `CC(C)(C)[C@H](NC(=O)NC1(C(OCOCc2ccccc2)c2ccccc2)CCCC1)C(=O)N1C[C@H]2[C@@H]([C@H]1C(=O)NC(CC1CC1)C(=O)C(N)=O)C2(C)C` (stereo partly shown) [Example 1634], `CC(C)(C)[C@H](NC(=O)NC1(C(OCOCc2ccccc2)c2ccccc2)CCCCC1)C(=O)N1C[C@H]2[C@@H]([C@H]1C(=O)NC(CC1CC1)C(=O)C(N)=O)C2(C)C` (stereo partly shown) [Example 1641] is higher in pKi: 6.60 to 7.12 for the first, greater than 7.12 for the second.

First: CC(C)(C)[C@H](NC(=O)NC1(C(O)c2ccccc2)CCCC1)C(=O)N1C[C@H]2[C@@H]([C@H]1C(=O)NC(CC1CC1)C(=O)C(N)=O)C2(C)C (stereo partly shown) [Example 1635]
Second: CC(C)(NC(=O)N[C@H](C(=O)N1C[C@H]2[C@@H]([C@H]1C(=O)NC(CC1CC1)C(=O)C(N)=O)C2(C)C)C(C)(C)C)C(O)c1ccccc1 (stereo partly shown) [Example 1648]
The pKi of the first is higher: greater than 7.12 for the first, 6.60 to 7.12 for the second.

Compared with `C=CCNC(=O)C(=O)C(CCCC)NC(=O)[C@@H]1[C@@H]2[C@H](CN1C(=O)[C@@H](NC(=O)N[C@H](COC(C)(C)C)C(C)(C)C)C1CCCCC1)C2(C)C` (stereo partly shown) [Example 1636], `C=CCNC(=O)C(=O)C(CCCC)NC(=O)[C@@H]1[C@@H]2[C@H](CN1C(=O)[C@@H](NC(=O)N[C@H](COC)C(C)(C)C)C1(C)CCCCC1)C2(C)C` (stereo partly shown) [Example 1649] is higher in pKi: 6.60 to 7.12 for the first, greater than 7.12 for the second. The second binds more tightly here.

`CC(C)(C)[C@H](NC(=O)NC1(C(Cc2ccccc2)OCOCc2ccccc2)CCCCC1)C(=O)N1C[C@H]2[C@@H]([C@H]1C(=O)NC(CC1CC1)C(=O)C(N)=O)C2(C)C` (stereo partly shown) [Example 1643] and `CC(C)(NC(=O)N[C@H](C(=O)N1C[C@H]2[C@@H]([C@H]1C(=O)NC(CC1CC1)C(=O)C(N)=O)C2(C)C)C(C)(C)C)C(OCOCc1ccccc1)c1ccccc1` (stereo partly shown) [Example 1647] fall in the same range of pKi: 6.60 to 7.12 for the first, 6.60 to 7.12 for the second.

First: C=CCNC(=O)C(=O)C(CCCC)NC(=O)[C@@H]1[C@@H]2[C@H](CN1C(=O)[C@@H](NC(=O)N[C@H](COC)C(C)C)C1(C)CCCCC1)C2(C)C (stereo partly shown) [Example 1650]
Second: COC[C@@H](NC(=O)N[C@H](C(=O)N1C[C@H]2[C@@H]([C@H]1C(=O)NC(CC1CC1)C(=O)C(N)=O)C2(C)C)C1Cc2ccccc2C1)C(C)C (stereo partly shown) [Example 1651]
The pKi of the first is lower: 6.60 to 7.12 for the first, greater than 7.12 for the second. The second binds more tightly here.

Same assay, conditions: Table 6, numeric Ki*

`COC[C@@H](NC(=O)N[C@H](C(=O)N1C[C@H]2[C@@H]([C@H]1C(=O)NC(CC1CCC1)C(=O)C(N)=O)C2(C)C)C1Cc2ccccc2C1)C(C)(C)C` (stereo partly shown) [Example 1631] was tested, and the pKi was 7.82.
